Among all 52,000 compounds or so, about 1,700 (3.3%) were called active. Cut-off read from the data, not from the text of the source: active = survival mostly below about 52% (no sharp cut-off); inactive = mostly above about 56%. The list shows a part of the results.
system: Wild type; assay: growth inhibition of S. aureus wild type versus tarO mutant, primary screen, teichoic acid synthesis inhibitors, RN4220, OD600 (AID 463173); settings: S. aureus RN4220 wild type/DeltatarO growth, OD600, 18 h, hits give low values, screened at 18.75 µg/mL (by protocol)

| SMILES | survival |
| --- | --- |
| Cc1cccc(N2CCN(C(=O)CN3C(=O)COc4ccc(S(=O)(=O)N5CCC(C)CC5)cc43)CC2)c1C | inactive: 73% |
| Cc1csc2nc(COC(=O)c3cccc(NC(=O)c4cccc(Cl)c4)c3)cc(=O)n12 | active: -1% |
| CCc1nn(CC(=O)N2CCC(C)CC2)c(=O)c2cc3occc3n12 | inactive: 127% |
| CCCN(c1ccc(C(C)C)cc1)S(=O)(=O)c1ccc2c(c1)n(C)c(=O)c(=O)n2C | inactive: 90% |
| Cc1ccc(NC(=O)CSc2nc3ccccc3n2CC(=O)N2CCC(C)CC2)cc1C | active: -1% |
| CCC(=O)Oc1cc(C(C)(C)C)cc2cc(-c3nc(-c4ccc(OC)cc4OC)no3)c(=O)oc12 | inactive: 106% |
| CCOc1ccc(N(CC(=O)Nc2cc(OC)cc(OC)c2)S(=O)(=O)c2c(C)[nH]c(=O)[nH]c2=O)cc1 | inactive: 79% |
| Cc1ccc(-n2nc3c(N4CCC(C(=O)NC5CCC(C)CC5)CC4)nnc(C)c3c2C)cc1 (stereo not drawn) | inactive: 74% |
| Cc1ccc2sc(N(Cc3cccnc3)C(=O)Cc3ccccc3)nc2c1C | inactive: 63% |
| CC1=C(C(N)=O)C(c2cccc(O)c2)n2ncnc2N1 (stereo not drawn) | inactive: 87% |
| COc1ccc(Cl)cc1NC(=O)Cn1c(=O)oc2cc(S(=O)(=O)N3CCCCCC3)ccc21 | inactive: 88% |
| O=C(c1cccs1)c1cn(CCOc2ccc(Cl)cc2)c2ccccc12 | inactive: 80% |
| Cc1ccc(C(=O)c2cn(Cc3ccccc3F)c3cc4c(cc3c2=O)OCCO4)cc1 | inactive: 83% |
| CN(C)CCNC(=O)c1ccc(Cn2c(SCc3ccc(F)cc3)nc3cccnc32)cc1 | inactive: 129% |
| Cc1cc2c(n1-c1ccc(C(=O)NCCc3ccc(Cl)cc3)cc1)CCC(C)C2 (stereo not drawn) | inactive: 70% |
| Cc1nc2nc(C(F)(F)F)[nH]c2cc1Br | inactive: 16% |
| COc1ccc(-c2cc(C(F)(F)F)n3nc(C(=O)OC(C)C)cc3n2)cc1 | inactive: 70% |
| CCc1ccc2oc(C(=O)Nc3nc(-c4ccc(F)cc4)ns3)c(C)c2c1 | inactive: 77% |
| CCOC(=O)c1cccc(NC(=O)CC2C(=O)N(c3ccccc3)C(=O)N2Cc2ccco2)c1 (stereo not drawn) | inactive: 45% |
| Cc1c(C2=CCN(S(=O)(=O)c3ccc(Cl)cc3)CC2)c2ccccc2n1CC(=O)N1CCCC1 | inactive: 75% |
| O=C(CC1(O)C(=O)N(CCc2ccccc2)c2ccc(Br)cc21)c1ccccc1 (stereo not drawn) | inactive: 15% |
| O=C(OCn1nnc2ccccc2c1=O)C1CCCCC1 | inactive: 118% |

| SMILES | survival |
| --- | --- |
| CCOc1ccccc1CNC(=O)C1CCN(c2nnc(C)c3c(C)n(-c4ccc(C)cc4)nc23)CC1 | inactive: 86% |
| O=C(CN1C(=O)S/C(=C\c2ccco2)C1=O)CN1C(=O)S/C(=C\c2ccco2)C1=O | inactive: 113% |
| CC(=O)Nc1ccc(Nc2nc3ccc(Cl)cc3n3cnnc23)cc1 | inactive: 81% |
| CNC(=O)c1ccc(-c2nc(CN3CCc4ccccc43)c(C)o2)cc1 | inactive: 74% |
| Cc1cccc(OCC(=O)Nc2ccc(OCc3cc(=O)n4cc(C)ccc4n3)cc2)c1 | inactive: 88% |
| Cc1c(Cl)cccc1NC(=O)C(C)n1nc(C)c2c(C)n(-c3ccccc3)nc2c1=O (stereo not drawn) | inactive: 81% |
| CCC1CCCCN1C(=O)CSc1n[nH]c(-c2ccccc2)n1 (stereo not drawn) | inactive: 100% |
| CCCn1c(SCC(=O)N2CCCC2)nnc1C(C)C | inactive: 105% |
| COc1ccc(N(Cc2nnc3n2CCCCC3)C(=O)Nc2ccc(Cl)cc2)cc1Cl | inactive: 80% |
| Cc1cccc(NC(=O)CSc2cn(CC(=O)N3CCC(C)CC3)c3ccccc23)c1C | inactive: 96% |
| Fc1ccccc1-n1ncc2c1ncn1nc(COc3ccc(Cl)cc3)nc21 | inactive: 91% |
| COc1ccccc1CNC(=O)c1cc(S(=O)(=O)N2CCCCCC2)cn1C | inactive: 132% |
| O=C1CC(c2nnc(Cc3ccc(F)cc3)o2)CN1c1ccccc1 (stereo not drawn) | inactive: 111% |
| Cc1cccc(N2CCN(S(=O)(=O)c3nnc(NC(=O)c4ccc(Cl)cc4)s3)CC2)c1 | inactive: 84% |
| COc1ccc(OC)c(NC(=O)c2ccc3nc(C(C)C)oc3c2)c1 | inactive: 60% |
| CC(=O)c1cccc(NC(=O)Cn2c(-c3cncs3)nc3ccccc32)c1 | inactive: 53% |
| CN(C)CCOC(=O)c1ccco1 | inactive: 104% |
| COc1ccccc1N1CCN(C(=O)c2cc3c(s2)-c2ccccc2OC3)CC1 | inactive: 91% |
| CCc1cccc(NC(=O)c2cc(S(=O)(=O)N3CCCCCC3)cn2C)c1 | inactive: 65% |
| Cc1ccccc1CN1CCC(CNC(=O)c2cc3ccc4cccnc4c3[nH]2)CC1 | inactive: 79% |
| COc1ccccc1NC(=O)c1sc2nc(C)c(C(=O)Nc3ccc(Cl)cc3)c(-c3ccc(Br)cc3)c2c1N | inactive: 98% |
| CC(C)(C)C(=O)NC1CC(=O)N(c2ccc3c(c2)OCCO3)C1 (stereo not drawn) | inactive: 140% |

| SMILES | survival |
| --- | --- |
| Cc1noc(Cn2c(=O)c3cc4c(cc3n(CC(=O)Nc3ccc(C(C)C)cc3)c2=O)OCO4)n1 | inactive: 76% |
| CC(C)NC(=O)Cc1csc2nc(-c3ccccc3)cn12 | inactive: 125% |
| CCc1ccccc1N1CC(c2nc3ccccc3n2CCCCOc2ccccc2OC)CC1=O (stereo not drawn) | inactive: 93% |
| O=C1CCc2cc(S(=O)(=O)NC(C(=O)Nc3ccc(F)cc3)c3ccccc3)ccc2N1 (stereo not drawn) | inactive: 78% |
| COc1cccc(-c2cc(C(F)(F)F)n3nc(-c4ccc(C)cc4)cc3n2)c1 | inactive: 129% |
| CNS(=O)(=O)c1ccc(NC(=O)c2nc3nc(C)cc(C(F)F)n3n2)cc1 | inactive: 132% |
| CCN(c1ccccc1)S(=O)(=O)c1ccc(NC(=O)c2cc(=O)c3c(C)cc(C)cc3o2)cc1 | inactive: 82% |
| Cc1nc2nc(CNC(=O)c3cccc(F)c3)nn2c(C)c1CCC(=O)Nc1ccc(F)cc1 | inactive: 90% |
| O=c1n(Cc2ccccc2)nc2n1-c1ccccc1OC2 | inactive: 115% |
| CC(C)c1cnc2c(c1SCc1ccc([N+](=O)[O-])cc1)c(=O)n(C)c(=O)n2C | inactive: 102% |
| COc1cc2c(cc1OC)C(COc1ccc(F)cc1)N(C(=O)C(C)C)CC2 (stereo not drawn) | inactive: 49% |
| CCOc1ccc(NS(=O)(=O)c2ccc3[nH]cc(C(=O)N4CCCC4)c(=O)c3c2)cc1 | inactive: 86% |
| Cc1ccc(S(=O)(=O)Cc2csc(N)n2)cc1 | inactive: 110% |
| COc1ccc(S(=O)(=O)N(Cc2nc(-c3ccccc3)no2)C2CCCCC2)cc1 | inactive: 81% |
| Cc1ccccc1C(=O)NCC(c1ccc(N(C)C)cc1)N1CCCC1 (stereo not drawn) | inactive: 66% |
| Fc1ccc(Nc2nc(SCc3ccc(Cl)cc3)nc3ccccc23)cc1 | inactive: 90% |
| COc1cccc(N2C(=O)CC(N3CCC(C(N)=O)(N4CCCCC4)CC3)C2=O)c1 (stereo not drawn) | inactive: 91% |
| Cc1cccc(-c2noc(-c3cccnc3NCc3ccccc3Cl)n2)c1 | inactive: 79% |
| O=S(=O)(NCC(c1ccco1)S(=O)(=O)c1ccccc1)c1cc(F)ccc1F (stereo not drawn) | inactive: 87% |
| CNC(=O)C1CCC(Cn2c(=O)c3sccc3n(CC(=O)N3CCCCC3C)c2=O)CC1 (stereo not drawn) | inactive: 113% |
| O=C(CCS(=O)(=O)c1ccc(Br)s1)Nc1c(F)cccc1F | inactive: 134% |
| COc1cc(C2CC(=O)N(c3ccc(C)c(Cl)c3)C3=C2C(=O)OC3)cc(OC)c1OC (stereo not drawn) | inactive: 76% |

| SMILES | survival |
| --- | --- |
| CCCCOc1ccc(NC(=O)CSc2ccc(C(=O)O)cn2)cc1 | inactive: 89% |
| CCN1CCN(CCC(=O)Nc2ccc(C)cc2)CC1 | inactive: 102% |
| CC(C)(C)n1nnnc1CN1CCC(NC(=O)Nc2ccc(F)cc2)CC1 | inactive: 103% |
| CCOC(=O)c1ccc(NC(=O)Nc2cccc(OCc3cc(=O)n4ccc(C)cc4n3)c2)cc1 | inactive: 74% |
| COc1ccc(NC(=O)CCc2nc3cccnc3n2Cc2cccs2)c(OC)c1 | inactive: 80% |
| Cc1cc(N2CCN(c3ccccc3F)CC2)n2cnnc2n1 | inactive: 84% |
| CCCSc1ncc(Cl)c(C(=O)Nc2ccc(OC)cc2OC)n1 | inactive: 86% |
| O=C(NCc1ccc(F)cc1)c1ccc2c(c1)N(Cc1ccc(F)cc1Cl)C(=O)CS2 | inactive: 86% |
| CC(C)CCSc1nc2c(c(=O)n(C)c(=O)n2C)n1Cc1ccccc1Cl | inactive: 62% |
| O=C(NCCn1cc(SCc2ccc(C(F)(F)F)cc2)c2ccccc21)c1ccccc1F | inactive: 35% |
| COc1cccc(CNC(=O)CCn2ccc3cc(S(=O)(=O)N4CCCC4)ccc32)c1 | inactive: 73% |
| Cc1ccc(CN2C(=O)SC(Nc3ccccc3)C2=O)cc1 (stereo not drawn) | inactive: 68% |
| CCn1cnc2c(=O)oc3ccc(S(=O)(=O)N4CCN(c5cc(C)ccc5C)CC4)cc3c21 | inactive: 101% |
| CN(C)S(=O)(=O)c1ccc(S(=O)(=O)N2CC=C(c3ccc(F)cc3)CC2)cc1 | inactive: 102% |
| COc1ccc(NC(=O)Nc2nnc(SCC(=O)Nc3cccc(C)c3C)s2)cc1 | inactive: 113% |
| COc1ccc(CCn2nnnc2CN2CCN(Cc3ccccc3)CC2)cc1OC | inactive: 108% |
| CCOc1ccc(NC(=O)CCn2c(-c3ccc(F)cc3)cc(C(C)=O)c2C)cc1 | inactive: 69% |
| O=S(=O)(NCCc1ccc(Cl)cc1)c1ccc(N2CCCCS2(=O)=O)cc1 | inactive: 92% |
| COc1ccc(C2=C(C)C(=O)N(Cc3ccc(C(=O)NCc4ccccc4C)cc3)S2(=O)=O)cc1 | inactive: 66% |
| COc1ccccc1OCCCn1c(-c2ccc(Cl)cc2)nc2ccccc2c1=O | inactive: 34% |
| COc1cc(NC(=O)CCN2CCOCC2)cc(OC)c1 | inactive: 108% |
| O=C(CSc1nnc(-c2ccccc2)c(-c2ccccc2)n1)Nc1ccccc1Cl | inactive: 70% |
